# Publication PMC4336329 (PLoS ONE, 2015)
# Screen size: about 310,000 compounds; about 14,000 (4.5%) showed an effect of 50% or more. The effect is printed as a negative number. This is one part of the list.
# Target: human ether-à-go-go-related gene (hERG) potassium channel (human, UniProt Q12809)
# Experiment: primary screen, population patch clamp on CHO cells stably expressing hERG
# 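Also: peak tail current of the secondary pulse compared with the same well before compound.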
# human ether-à-go-go-related gene (hERG) potassium channel, sequence (Q12809 whole entry, looked up): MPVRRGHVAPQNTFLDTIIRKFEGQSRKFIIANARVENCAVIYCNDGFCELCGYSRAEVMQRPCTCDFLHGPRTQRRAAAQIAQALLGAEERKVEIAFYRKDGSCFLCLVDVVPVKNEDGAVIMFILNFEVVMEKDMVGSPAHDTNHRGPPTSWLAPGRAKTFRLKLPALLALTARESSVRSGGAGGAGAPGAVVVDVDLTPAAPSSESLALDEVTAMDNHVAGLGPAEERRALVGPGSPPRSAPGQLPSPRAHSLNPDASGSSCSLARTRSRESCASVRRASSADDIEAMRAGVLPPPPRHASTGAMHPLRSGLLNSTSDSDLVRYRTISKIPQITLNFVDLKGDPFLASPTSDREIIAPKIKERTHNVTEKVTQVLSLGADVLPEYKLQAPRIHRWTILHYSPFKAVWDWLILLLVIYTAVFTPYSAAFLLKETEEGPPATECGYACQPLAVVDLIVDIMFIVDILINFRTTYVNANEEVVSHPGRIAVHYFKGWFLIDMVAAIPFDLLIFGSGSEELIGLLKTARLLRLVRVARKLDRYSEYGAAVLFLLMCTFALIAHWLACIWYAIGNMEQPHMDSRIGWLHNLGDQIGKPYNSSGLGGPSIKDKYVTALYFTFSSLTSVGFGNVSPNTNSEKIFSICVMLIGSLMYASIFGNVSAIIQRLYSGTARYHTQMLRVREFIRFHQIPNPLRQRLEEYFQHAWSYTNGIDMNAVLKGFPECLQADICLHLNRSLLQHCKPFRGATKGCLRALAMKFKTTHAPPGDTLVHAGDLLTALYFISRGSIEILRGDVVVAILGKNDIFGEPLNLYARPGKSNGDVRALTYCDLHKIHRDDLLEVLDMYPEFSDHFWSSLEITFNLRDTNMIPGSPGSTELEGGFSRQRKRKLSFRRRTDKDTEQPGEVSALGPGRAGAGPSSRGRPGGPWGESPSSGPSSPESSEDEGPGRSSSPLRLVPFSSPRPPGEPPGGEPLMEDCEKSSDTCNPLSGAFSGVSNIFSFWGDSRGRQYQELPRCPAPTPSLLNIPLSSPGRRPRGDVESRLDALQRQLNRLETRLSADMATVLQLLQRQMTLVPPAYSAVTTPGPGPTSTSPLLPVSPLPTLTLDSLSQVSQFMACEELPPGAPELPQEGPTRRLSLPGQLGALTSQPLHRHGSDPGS
row,Compound,"hERG current change (%, negative = inhibition) at 10uM"
1,CN(Cc1ccc(F)cc1)Cc1nc(-c2cnccn2)no1,13.7%
2,COc1cc(CC2COC(c3ccc(O)c(OC)c3)C2COC(C)=O)ccc1O (centres unmarked),-6.69%
3,Cc1ccc(OCC(=O)Oc2ccccc2[N+](=O)[O-])cc1,4.98%
4,Cc1nnc2ccc(N3CCOCC3)nn12,2.88%
5,Fc1ccc(-n2c(-c3ccc4ccccc4n3)n[nH]c2=S)cc1,30%
6,Cc1cccc(C)c1NC(=O)Cn1c(CN2CCCCC2)nc2ccccc2c1=O,12.1%
7,CCOc1cc(C(=O)Nc2ccccc2N2CCOCC2)ccc1OCC(=O)N1CCCCC1,3.09%
8,CCN(CC)C(=O)CSc1ncccc1-c1nc2ccccc2[nH]1,-1.29%
9,CN1CCN(C(CNC(=O)C(=O)Nc2ccc3c(c2)OCCO3)c2ccc(F)cc2)CC1 (centres unmarked),-46.2%
10,Cn1c(NNC(=O)CCC2CCCCC2)cc(=O)n(C)c1=O,13.1%
11,CN(Cc1ccccc1)C(=O)c1[nH]cnc1C(=O)NCC(=O)OCc1ccccc1,-17.4%
12,O=C(OCC(=O)N1CCc2ccccc21)c1cccnc1,-0.586%
13,CCC(=O)NC(=S)Nc1c(C)cc(Br)cc1C,11.3%
14,Cc1ccccc1N1CCN(CC(=O)NCc2ccc(Cl)cc2)CC1,-27%
15,Cc1ccc(-c2nc(S(=O)(=O)c3ccc(C)cc3)c(SCC(N)=O)o2)cc1,11.8%
16,N/C(=N\O)c1cccc(CS(=O)(=O)c2ccccn2)c1,23.8%
17,CC(=O)Nc1ccc(Nc2cc(-c3ccccc3)nc3ncnn23)cc1,17.1%
18,COc1ccc(OC)c(S(=O)(=O)N2CCNCC2)c1,-3.13%
19,CC1CN(CC(=O)NCc2ccc(Cl)cc2)CC(C)O1 (centres unmarked),3.5%

row,Compound,"hERG current change (%, negative = inhibition) at 10uM"
1,COCCNC(=O)c1ccc(N(C)S(=O)(=O)c2ccc(OC)c(OC)c2)cc1,1.7%
2,O=c1oc2cc(OCc3ccc([N+](=O)[O-])cc3)ccc2c2c1CCCC2,0.447%
3,CCCCN1CC(=O)N2Cc3[nH]c4ccccc4c3C[C@H]2C1=O,13.1%
4,COc1ccccc1CNCc1cc(=O)oc2c(C)c(C)ccc12,-14.4%
5,O=S(=O)(c1ccc(-c2ccon2)s1)N1CCN(c2ccccn2)CC1,7.27%
6,Cc1csc(=O)n1CCC(=O)OCC(=O)Nc1ncc(Cl)cc1Cl,-1.4%
7,CCC(=O)N1c2ccc(C)cc2C2=NNC(=S)NC21O (centres unmarked),5.02%
8,COCn1c(COc2ccc3ccccc3c2)nc2ccccc21,-6%
9,CCC(=O)Nc1ccc(Cl)c(NC(=O)c2cccnc2)c1,-3.92%
10,O=C(c1ccc(COc2ccc3c(c2)CCC3)o1)N1CCN(c2ccccc2)CC1,15.5%
11,O=C(CNC(=S)N(CCCN1CCOCC1)Cc1cccs1)NC1CCCCC1,-31.2%
12,C=CCC(O)(CC=C)C(C)N.Cl (centres unmarked),47.6%
13,COc1ccccc1N1CCN(C(=O)C(=O)c2cn(CC(=O)N3CCOCC3)c3ccccc23)CC1,11.4%
14,O=C(CNCc1ccccc1Cl)NCc1ccco1.O=C(O)C(=O)O,5.37%
15,O=C(O)CSc1nnc(Cc2cccc3ccccc23)n1-c1cc(C(F)(F)F)cc(C(F)(F)F)c1,12.5%
16,CCOC(=O)N1CCC(N2Cc3cccc(C(=O)N4CCN(c5cccc(Cl)c5)CC4)c3C2=O)CC1,-63.7%
17,O=C1N(Cc2ccc3c(c2)OCO3)c2ccccc2C1(O)c1c[nH]c2ccccc12 (centres unmarked),11.1%
18,Cc1onc(-c2ccccc2Cl)c1C(=O)NCc1ccccc1F,-9.14%
19,COCCN(C(=O)COC(=O)/C=C/c1ccc(C)o1)c1c(N)n(Cc2ccccc2)c(=O)[nH]c1=O,20.9%

row,Compound,"hERG current change (%, negative = inhibition) at 10uM"
1,CC(=O)C1=C(O)C(=O)N(c2nccs2)C1c1ccccc1F (centres unmarked),16.4%
2,Cc1noc(C)c1CSc1nnc2ccc3ccccc3n12,-25.1%
3,O=c1cc(CN2CCOCC2)nc(C2CC2)[nH]1,11.9%
4,CC1(C)c2[nH]c3ccccc3c2C[C@H]2C(=O)N(Cc3ccccc3)C(=O)N21,11.2%
5,O=C(O)c1cccc(N2C(=O)CSC2c2c(F)cccc2Cl)c1 (centres unmarked),3.04%
6,Nc1cc(C(=O)O)c(Oc2ccc(Cl)cc2Cl)cc1C(=O)O,7.83%
7,COc1ccc(CN2CCN(C(=O)CC(C)C)CC2)c(OC)c1OC,16.6%
8,Cc1ccc(S(=O)(=O)CC(=O)N2CCN(c3ccc(F)cc3)CC2)cc1,-51.5%
9,COC(=O)c1ccc(C(=O)NC2CCCc3c2cnn3-c2ccc(C)c(C)c2)cc1 (centres unmarked),6.54%
10,CSc1nc2sc3c(c2c(=O)n1C)CCC(C)C3 (centres unmarked),8.3%
11,O=C(COC(=O)CSc1ccc(Cl)cc1)Nc1ccccc1,-6.77%
12,COc1ccc(NC(=O)COC(=O)c2ccc(OCc3ccc(Cl)cc3Cl)c(OC)c2)c(OC)c1,3.38%
13,CN(C)S(=O)(=O)c1ccc(C(=O)OCC(=O)c2csc(N3CCCCC3)n2)cc1,2.26%
14,COc1ccccc1CCc1nnc(CCC(=O)N(C)Cc2cccc3cnccc23)o1,-35.3%
15,Cc1cc(C)cc(NC(=O)C2CCN(S(=O)(=O)c3c(C)n[nH]c3C)CC2)c1,-21.1%
16,COc1ccccc1CNc1ccc([N+](=O)[O-])cc1C,4.41%
17,CS(=O)(=O)N1CCN(c2ccccc2NC(=S)NC(=O)c2ccccc2[N+](=O)[O-])CC1,6.06%
18,CN(C(=O)CCNC(=O)N1CC(=O)Nc2ccccc21)C1CCCCC1,20.1%
